Article PMC10009787 (ACS Medicinal Chemistry Letters, 2023)
Where two headings read alike, the source gives them in different places.

Experiments:
[1] = molecular target: EGFR (ErbB1) L858R (Homo sapiens, UniProt P00533, L858R); test: SelectScreen kinase profiling; assay type: biochemical; details: average of duplicate
[2] = molecular target: EGFR (ErbB1) T790M L858R (Homo sapiens, UniProt P00533, L858R/T790M); test: SelectScreen kinase profiling; assay type: biochemical; details: average of duplicate
[3] = molecular target: SRC (Homo sapiens, UniProt P12931); test: SelectScreen kinase profiling / Z′-Lyte kinase assay
UniProt P12931, sequence (P12931 whole entry): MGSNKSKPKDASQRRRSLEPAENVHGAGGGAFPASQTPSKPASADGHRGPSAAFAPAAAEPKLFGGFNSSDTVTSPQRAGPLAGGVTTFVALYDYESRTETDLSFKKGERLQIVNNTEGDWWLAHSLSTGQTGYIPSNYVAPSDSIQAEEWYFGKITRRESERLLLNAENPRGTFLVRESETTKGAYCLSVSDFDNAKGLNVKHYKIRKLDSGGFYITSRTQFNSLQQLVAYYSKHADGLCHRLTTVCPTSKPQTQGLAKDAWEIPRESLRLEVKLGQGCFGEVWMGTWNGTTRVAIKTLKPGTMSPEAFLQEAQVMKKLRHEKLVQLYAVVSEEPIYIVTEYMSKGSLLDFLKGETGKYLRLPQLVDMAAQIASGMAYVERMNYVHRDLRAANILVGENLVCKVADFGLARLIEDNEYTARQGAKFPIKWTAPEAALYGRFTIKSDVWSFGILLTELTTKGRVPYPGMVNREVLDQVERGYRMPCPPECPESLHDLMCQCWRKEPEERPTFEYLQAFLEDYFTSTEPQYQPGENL

Question: Which results are given for C=CC(=O)N1CCC[C@@H](n2nc(-c3ccc(Oc4ccccc4)cc3C)c3c(N)ncnc32)C1 [Compound 2, (R)-1-(3-(4-amino-3-(2-methyl-4-phenoxyphenyl)-1H-pyrazolo[3,4-d]pyrimidin-1-yl)piperidin-1-yl)prop-2-en-1-one]?
Answer: inhibition at 1 µM [1]: 51%; inhibition at 1 µM [2]: 25%; inhibition at 3.33 µM ([3]; read-out: % Inhibition Point 1): 100%; inhibition at 10 µM ([3]; read-out: % Inhibition Point 1): 98%; inhibition at 3.33 µM ([3]; read-out: % Inhibition Point 2): 98%; inhibition at 10 µM ([3]; read-out: % Inhibition Point 2): 101%
